Results as given in PubChem BioAssay AID2147 (National Center for Advancing Translational Sciences (NCATS), 2009).
Screen size: about 230,000 compounds; about 3,600 (1.6%) were called active. The inconclusive results got no clear call from the source; some entries with a clear call stand among them for comparison. Calls follow the shape of the dose curve; as a rule, active = well fitted inhibition curve with a large enough effect (not every such curve was filed as active); inconclusive = small, poorly fitted or top-dose-only effect, or another doubt; inactive = no such curve, though single readings can be large or run the other way. Potencies of inconclusive entries are doubtful fits and often do not repeat.

molecular target: Lysine-specific demethylase 4E (Homo sapiens) (UniProt B2RXH2); test: qHTS Assay for Inhibitors of Human Jumonji Domain Containing 2E (JMJD2E); conditions: JMJD2E catalytic domain, FDH-coupled NADH fluorescence (FDH is formaldehyde dehydrogenase); series mostly up to 57.1 µM; activity change, negative = inhibition: at the top concentration
Chain of UniProt B2RXH2 (B2RXH2 whole entry, looked up, the tested form may be a part): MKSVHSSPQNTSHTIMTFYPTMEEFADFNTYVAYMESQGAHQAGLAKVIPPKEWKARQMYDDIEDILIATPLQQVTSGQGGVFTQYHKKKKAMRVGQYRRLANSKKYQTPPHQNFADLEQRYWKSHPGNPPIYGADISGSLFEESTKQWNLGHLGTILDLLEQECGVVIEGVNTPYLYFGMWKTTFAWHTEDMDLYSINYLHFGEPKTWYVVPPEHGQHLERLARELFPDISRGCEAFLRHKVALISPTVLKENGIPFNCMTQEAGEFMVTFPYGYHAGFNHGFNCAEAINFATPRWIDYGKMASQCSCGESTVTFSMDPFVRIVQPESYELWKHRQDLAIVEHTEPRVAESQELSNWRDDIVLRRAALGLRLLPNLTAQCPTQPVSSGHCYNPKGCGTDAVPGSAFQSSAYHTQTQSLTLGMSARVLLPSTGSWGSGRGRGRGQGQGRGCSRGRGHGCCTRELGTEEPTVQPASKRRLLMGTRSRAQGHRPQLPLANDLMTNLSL
Also: nearly all actives have a fitted effect of over 50% in size.
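For activity change, negative = inhibition in this document: 0% = wells with enzyme and -100% = buffer wells without enzyme.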
Potency is read from the fitted curve at half-maximal effect; tags tell the direction and shape of the fitted curve.

| Structure (SMILES) | Potency | activity change, negative = inhibition |
| --- | --- | --- |
| CSc1ccc(Cl)c(C(=O)OCC(=O)N(C)CCC#N)c1 | inconclusive: 25.1 µM [inhibitor, partial curve] |  |
| COC(=O)c1cc(OC)c(OC)cc1NC(=O)C(C)Sc1ccc(C)cc1 (configuration not stated) | inconclusive: 35.5 µM [inhibitor, single point] |  |
| Cc1noc(NS(=O)(=O)c2ccc(N/C=C\C(=O)c3cccc4ccccc34)cc2)c1C |  | inactive: -11.6% |
| CCc1cc(C=NC2CCCCC2)c(O)s1 |  | inactive: -8.54% |
| Cc1cc2nn(-c3cccc4ccccc34)nc2cc1N | inconclusive: 2.24 µM [inhibitor, partial curve] |  |
| COc1ccc(N2C(=O)CC(SCC(=O)O)C2=O)cc1 (configuration not stated) |  | inactive: 2.12% |
| COc1ccccc1NC(=S)NC(=O)C(C)(C)C | inconclusive: 39.8 µM [inhibitor, single point] |  |
| COC(=O)c1ccc(O)c(Sc2cc(C(=O)OC)ccc2O)c1 | inconclusive: 31.6 µM [inhibitor, single point] |  |
| CC(C)=CC(=O)Nc1nnc(-c2ccccc2)s1 | inconclusive: 7.08 µM [inhibitor, single point] |  |
| Cc1c(NC(=O)c2cc(-c3cccs3)nc3ccccc23)c(=O)n(-c2ccccc2)n1C | inconclusive: 28.2 µM [inhibitor, single point] |  |
| COc1ccc(/C=C2\C(=O)ON=C2c2cccc([N+](=O)[O-])c2)cc1 |  | inactive: -6.65% |
| COc1ccc(CNn2c(-c3ccccc3F)nc3ccccc3c2=O)cc1OC |  | inactive: -1.71% |
| COC(=O)c1nc(-c2ccccc2)oc1N(C)C | inconclusive: 28.2 µM [inhibitor, partial curve] |  |
| C=C1C[C@@]23C[C@@]1(O)CCC2[C@@]12C=CC(O)[C@](C)(C(=O)O1)C2C3C(=O)O (some centres not stated) |  | inactive: 1.23% |
| COc1ccccc1C(=O)Nc1ccc(-c2nnc(SCC(=O)O)n2C)cc1 | inconclusive: 22.4 µM [inhibitor, single point] |  |
| O=C(NCc1csc(-c2cccs2)n1)Nc1cccc(Cl)c1 | inconclusive: 25.1 µM [inhibitor, partial curve] |  |
| Cc1cc2oc(C(=O)NCc3ccncc3)c(C)c2cc1C | inconclusive: 25.1 µM [inhibitor, partial curve] |  |
| CC1(C)OC(=O)C(=Cc2ccc[nH]2)C(=O)O1 |  | inactive: -6.89% |
| COc1ccc(Nc2nc(-c3cc4cccc(OC)c4oc3=O)cs2)cc1 | inconclusive: 35.5 µM [inhibitor, partial curve] |  |
| CCOC(=O)C1CCN(C(=O)C(CC)c2ccccc2)CC1 (configuration not stated) | inconclusive: 39.8 µM [inhibitor, single point] |  |
| Oc1ccc(-c2n[nH]c(=S)n2Cc2ccccc2)cc1 | inconclusive: 31.6 µM [inhibitor, single point] |  |
| O=C(COC(=O)c1ccc(Cl)s1)c1cc2ccccc2o1 |  | inactive: -16.3% |
| O=C(O)CCCN1C(=O)/C(=C/c2ccncc2)SC1=S | inconclusive: 22.4 µM [inhibitor, single point] |  |
| C=C(C)CNC(=S)Nc1cccc(S(=O)(=O)NC2=NCCC2)c1 |  | inactive: -0.888% |

| Structure (SMILES) | Potency | activity change, negative = inhibition |
| --- | --- | --- |
| CN1C(=O)c2ccc(NC(=O)c3ccc(N4CCCCC4)c([N+](=O)[O-])c3)cc2C1=O | inconclusive: 39.8 µM [inhibitor, single point] |  |
| COC(=O)c1c(NC(=O)c2ccc(Br)o2)sc(C)c1C | inconclusive: 8.91 µM [inhibitor, single point] |  |
| Cc1ccc(/C=c2\sc3nc(-c4ccco4)nn3c2=O)o1 | inconclusive: 25.1 µM [inhibitor, single point] |  |
| CN(C)S(=O)(=O)c1ccc(N2CCCC2)c(C(=O)Nc2nc3ccccc3s2)c1 | inconclusive: 35.5 µM [inhibitor, single point] |  |
| Clc1cccc(-c2cc3nc4c(c(NCc5ccco5)n3n2)CCCC4)c1 | inconclusive: 25.1 µM [inhibitor, partial curve] |  |
| Cc1cc(C)n2c(nc3ccccc32)c1C(=O)NN | inconclusive: 31.6 µM [inhibitor, partial curve] |  |
| O=C(O)c1cccc2cccnc12 |  | inactive: -4.63% |
| CCOC(=O)c1[nH]c2ccc(OCC)cc2c1NC(=O)CN1CCCC(C)C1 (configuration not stated) | inconclusive: 31.6 µM [inhibitor, partial curve] |  |
| Cc1ccc(C)n1C(CC(=O)O)c1ccc(C#N)cc1 (configuration not stated) | inconclusive: 20 µM [inhibitor, single point] |  |
| COc1ccc(-n2cc(CN(C)Cc3n[nH]c(=O)[nH]3)c(-c3cccc(F)c3)n2)cc1 | inconclusive: 28.2 µM [inhibitor, partial curve] |  |
| COc1ccc(OCC(=O)Nc2cccc(-c3nc4ccccc4[nH]3)c2)cc1 | inconclusive: 28.2 µM [inhibitor, partial curve] |  |
| COc1ccc(N(CC(=O)Nc2ccccc2C(=O)NCc2ccco2)S(C)(=O)=O)cc1 |  | inactive: -2.32% |
| O=c1c2cc(N3CCOCC3)ccc2[nH]c(=S)n1Cc1ccccc1Cl | inconclusive: 28.2 µM [inhibitor, partial curve] |  |
| Cc1cccc(C(=O)NC(=S)NNC(=O)c2ccc(Cl)cc2)c1 | inconclusive: 39.8 µM [inhibitor, single point] |  |
| Cc1cc(C(=O)COC(=O)c2cccnc2Cl)c(C)n1-c1c(C)n(C)n(-c2ccccc2)c1=O |  | inactive: 5.06% |
| O=C(NC1=NCCS1)c1cc(-c2ccc(-c3ccccc3)cc2)nc2ccccc12 | inconclusive: 35.5 µM [inhibitor, partial curve] |  |
| CCOC(=O)c1sc2nccc(OC)c2c1N=CN(C)C | inconclusive: 31.6 µM [inhibitor, partial curve] |  |
| Cn1c(=O)[nH]c2sc3c(c2c1=O)CC(C)(C)OC3 |  | inactive: 14.2% |
| OCc1ccnc2c(O)cccc12 | inconclusive: 8.91 µM [inhibitor, single point] |  |
| O=C(CC1Nc2ccccc2NC1=O)Nc1ccccc1 (configuration not stated) | inconclusive: 35.5 µM [inhibitor, single point] |  |
| Cc1oc(C)c2c(=O)ccc3c(c12)OC(N)=C(C#N)C3c1ccccc1 (configuration not stated) | inconclusive: 31.6 µM [inhibitor, single point] |  |
| O=C(N/N=C/c1coc2ccccc2c1=O)c1ccccc1 |  | inactive: 5.86% |
| O=C(NC1CCCC1)c1cc2c(ccc3ccccc32)o1 | inconclusive: 31.6 µM [inhibitor, partial curve] |  |
| O=C(O)c1ccc(N/N=C/c2ccc(-c3cc(Cl)ccc3Cl)o2)cc1 | inconclusive: 35.5 µM [inhibitor, single point] |  |

| Structure (SMILES) | Potency | activity change, negative = inhibition |
| --- | --- | --- |
| S=c1[nH]nc(-c2ccco2)n1/N=C/c1ccc(Cl)cc1 |  | inactive: -26.5% |
| S=c1[nH]nc(-c2cccnc2)n1Cc1ccccc1 | inconclusive: 39.8 µM [inhibitor, single point] |  |
| O=C1Nc2cc(Cl)c(Cl)cc2N(O)N1c1ccccc1 | inconclusive: 39.8 µM [inhibitor, single point] |  |
| O=C(O)c1ccc(-n2cccc2/C=N\NC(=O)c2cc3cc(Br)ccc3o2)cc1 | inconclusive: 39.8 µM [inhibitor, single point] |  |
| O=c1[nH]c(=O)c2nc(-c3ccc(Cl)cc3)cnc2[nH]1 | inconclusive: 31.6 µM [inhibitor, partial curve] |  |
| Cc1cccc(C(=O)NC(=S)Nc2ccccc2C(=O)O)c1 | inconclusive: 22.4 µM [inhibitor, partial curve] |  |
| CC(C1CCN(Cc2nc(C3CC3)no2)CC1)N1CCOCC1 (configuration not stated) |  | inactive: -9.34% |
| CC(=O)N1CCc2cc(C(=O)CN3CCCCC3)ccc21 | inconclusive: 39.8 µM [inhibitor, single point] |  |
| CCCc1nc2c(sc3nc4c(cc32)COC(C)(C)C4)c(=O)n1Cc1ccco1 | inconclusive: 25.1 µM [inhibitor, single point] |  |
| COc1ccc(/C=C/C(O)=C2/C(=O)N(C)C3(C)CC2c2ccccc2O3)cc1 (configuration not stated) | inconclusive: 22.4 µM [inhibitor, partial curve] |  |
| Cc1cc(C)cc(OCC(=O)N/N=C/c2ccccn2)c1 |  | inactive: -21.3% |
| Cc1nc2sc(-c3ccccc3)cc2c(=O)n1N | inconclusive: 39.8 µM [inhibitor, single point] |  |
| COc1ccc(CN=Nc2cc(C)nc(NS(=O)(=O)c3ccccc3Cl)n2)cc1 | inconclusive: 5.62 µM [inhibitor, full curve] |  |
| O=C(CNC(=O)c1ccccc1)OCC(=O)N1c2ccccc2Sc2ccccc21 |  | inactive: 5.97% |
| O=C(O)C1C2C=CC(O2)C1C(=O)Nc1ccccc1C(F)(F)F (configuration not stated) |  | inactive: 0.86% |
| Cc1cccc(CN2CCc3c(OCC(=O)N4CCCc5ccccc54)cccc3C2=O)c1 |  | inactive: -4.19% |
| CN1CCc2c(sc(/N=C/c3c[nH]c4ccccc34)c2C#N)C1 | inconclusive: 25.1 µM [inhibitor, partial curve] |  |
| CCNc1nc(N)c(C(=C(C#N)C#N)c2ccccc2)s1 | inconclusive: 25.1 µM [inhibitor, partial curve] |  |
| Cc1ccc(CNC(=O)CN(Cc2cccs2)C(=O)C2(C)CC(=O)N=C3C=CC=CN32)cc1 (configuration not stated) | inconclusive: 28.2 µM [inhibitor, partial curve] |  |
| CC1CC(C)CN(C(=S)Nc2ccc3nc4n(c(=O)c3c2)CCCCC4)C1 (configuration not stated) |  | inactive: -0.0303% |
| COC(=O)c1[nH]c2cccc(Cl)c2c1NC(=O)CN1CCN(CCO)CC1 | inconclusive: 28.2 µM [inhibitor, partial curve] |  |
| COc1cccc(/C=C/C(=O)OCC(=O)Nc2cccc(S(=O)(=O)N(C)C)c2)c1 | inconclusive: 28.2 µM [inhibitor, partial curve] |  |
| COc1cc(C=O)ccc1OCCCOc1ccccc1[N+](=O)[O-] |  | inactive: -5.27% |
| C=CCC1C=CCC(CC=C)N1C(=O)c1ccccc1[N+](=O)[O-] (configuration not stated) |  | inactive: 14.9% |
